Source: publication PMC4336329 (PLoS ONE, 2015)
Screen size: about 310,000 compounds; about 2,200 (0.71%) showed an effect of 50% or more. Effects have a minus sign here. The list shows a part of the results.

molecular target: human ether-à-go-go-related gene (hERG) potassium channel (human, UniProt Q12809); assay: primary screen, population patch clamp on CHO cells stably expressing hERG
Sequence (Q12809 whole entry, looked up): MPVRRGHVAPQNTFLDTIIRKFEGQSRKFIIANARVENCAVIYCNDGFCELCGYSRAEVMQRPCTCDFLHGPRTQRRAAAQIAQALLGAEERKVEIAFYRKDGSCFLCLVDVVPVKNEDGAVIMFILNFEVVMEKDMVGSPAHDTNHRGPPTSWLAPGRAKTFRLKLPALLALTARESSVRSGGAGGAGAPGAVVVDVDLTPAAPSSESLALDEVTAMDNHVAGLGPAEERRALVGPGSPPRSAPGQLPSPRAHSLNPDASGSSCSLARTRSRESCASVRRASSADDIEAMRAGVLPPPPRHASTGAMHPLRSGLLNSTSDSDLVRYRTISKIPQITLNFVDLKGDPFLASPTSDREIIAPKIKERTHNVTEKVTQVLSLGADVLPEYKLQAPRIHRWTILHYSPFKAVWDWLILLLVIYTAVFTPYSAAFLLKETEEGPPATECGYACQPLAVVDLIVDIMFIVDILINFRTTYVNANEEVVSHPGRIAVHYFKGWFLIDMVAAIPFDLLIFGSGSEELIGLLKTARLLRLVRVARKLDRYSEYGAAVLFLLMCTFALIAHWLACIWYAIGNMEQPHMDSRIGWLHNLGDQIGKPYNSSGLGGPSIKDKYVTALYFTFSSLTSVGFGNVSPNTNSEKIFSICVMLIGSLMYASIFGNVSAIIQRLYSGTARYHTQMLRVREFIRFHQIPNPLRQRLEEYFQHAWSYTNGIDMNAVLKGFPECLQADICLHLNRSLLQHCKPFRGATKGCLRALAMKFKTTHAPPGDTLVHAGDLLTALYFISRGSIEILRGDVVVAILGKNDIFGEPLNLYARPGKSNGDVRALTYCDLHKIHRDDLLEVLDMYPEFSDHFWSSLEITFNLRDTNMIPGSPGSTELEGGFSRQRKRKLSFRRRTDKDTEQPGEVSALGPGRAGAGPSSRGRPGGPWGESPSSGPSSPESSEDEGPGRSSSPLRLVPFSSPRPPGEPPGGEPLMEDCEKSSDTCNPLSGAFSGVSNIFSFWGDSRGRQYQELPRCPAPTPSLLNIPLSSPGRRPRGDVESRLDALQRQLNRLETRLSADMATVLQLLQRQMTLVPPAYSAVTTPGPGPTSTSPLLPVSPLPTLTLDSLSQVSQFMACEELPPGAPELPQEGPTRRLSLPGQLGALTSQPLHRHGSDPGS

SMILES	hERG current change (%, negative = inhibition) at 1uM
Cc1nc2scc(C)n2c(=O)c1S(=O)(=O)NCC1CCN(Cc2ccc(Cl)cc2)CC1	-12.8%
COc1cc(CNc2ccc3[nH]c(=O)[nH]c3c2)ccc1OCc1cccc(C)c1	16.8%
O=C(c1cc(Br)ccc1OC(F)F)N1CCN2CCCC2C1 (stereo not shown)	7.24%
c1ccc(C[C@H]2CNCCN2CC2CCCCC2)cc1	-1.78%
Cc1ccc(-c2ccc(=O)n(CCC(=O)N3CCN(c4ccccc4)CC3)n2)cc1	-19.9%
CCN1CCN(C(=O)CSc2nc(N)cc(N)n2)CC1	20.2%
Cc1c(Cl)cccc1N/C(SCC(=O)N1CCCCCC1)=C(/C#N)c1nc2ccccc2s1	1.3%
COc1ccc(-c2cn3nc(C)c(C)nc3n2)cc1OC	15.3%
Cc1cc(Br)ccc1NC(=O)CN(C)C(=O)c1ccc(-n2cncn2)c([N+](=O)[O-])c1	-19.5%
CCCN1CC(=O)N2C(c3ccccc3)c3[nH]c4ccccc4c3C[C@H]2C1=O (stereo partly shown)	1.54%
CC(C)(C)c1ccc(-c2nc3c(C#N)c(-c4ccc5c(c4)OCO5)ccn3n2)cc1	-2.37%
CCOc1ccc(C2Nc3cccc4cccc(c34)N2)cc1OC	11.3%
COc1ccc(N/C=C/c2nc(SC)nnc2C)cc1	12.6%
Cc1ccc(N2CCN(C(=O)c3ccccc3NC(=O)C3CC=CCC3C(=O)O)CC2)cc1 (stereo not shown)	4.08%
Br.c1ccc(-c2cc3n(c2)CCc2ccccc2-3)cc1	9.7%
C/C(=N\OC(=O)NC(C)C)c1sc(-c2ccccc2)nc1C	12%
O=[N+]([O-])c1ccc(Cl)c(S(=O)(=O)Nc2ccc(S(=O)(=O)N3CCOCC3)cc2)c1	17.8%
Nc1c(C(=O)c2ccc(Cl)cc2)sc2c1c(=O)[nH]c(=O)n2-c1ccccc1	7%
O=S(=O)(Nc1cc(S(=O)(=O)N2CCOCC2)ccc1NCC1CCCO1)c1ccccc1F (stereo not shown)	-1.92%
Cc1cccc(CCNC(=O)C2CCN(S(=O)(=O)c3c(C)noc3C)CC2)c1	13.3%
N#C/C(=C\c1ccco1)C(=O)Nc1ccc(S(N)(=O)=O)cc1	11.4%
Cc1ccc(CN2C(=O)c3ccccc3Sc3ccc(C(=O)NCCCN4CCOCC4)cc32)cc1	19.9%

SMILES	hERG current change (%, negative = inhibition) at 1uM
C[C@]12CCC(=O)C[C@@H]1CC[C@@H]1[C@@H]2CC[C@]2(C)C=CC[C@@H]12	10.6%
Cc1nc2c(C)cccn2c(=O)c1NC(=O)COc1ccccc1	9.78%
COc1cc(Cl)c(CN2CCC(CCC(=O)NC3CC3)CC2)cc1OC	-15.9%
COC(=O)c1c(-c2ccccc2OC)sc2ccc(OC)cc12	14.1%
COc1cc(/C=C2/SC(=S)N(CC(=O)Nc3nc4ccccc4s3)C2=O)cc(OC)c1OC	-3.69%
O=C(C[n+]1ccc(/C=N/O)cc1)N(Cc1ccccc1)Cc1ccccc1.[Cl-]	3.8%
CN1CC(=O)NC1=NC(=O)C12CC3CC(CC(C3)C1)C2	2.45%
CC1CCN(C(C(=O)Nc2ccc(C(C)C)cc2)c2ccc3c(c2)OCO3)CC1 (stereo not shown)	1.73%
O=C(NCCc1ccccc1F)c1cccc2cccnc12	16.3%
Cc1ccn2nc(C(=O)OCC(=O)N(CC(C)C)C3CCS(=O)(=O)C3)nc2n1 (stereo not shown)	11.2%
O=C(Cc1cccc2ccccc12)NC(=S)Nc1cccc(C(=O)O)c1	13.1%
Cc1cc(=O)[nH]c(SCC(=O)NC2CCCCC2)n1	11.1%
CCCCCC(=O)NC(NC(=S)NC1CCS(=O)(=O)C1)C(Cl)(Cl)Cl (stereo not shown)	0.663%
Cc1nnc(NC(=O)NCN2C(=O)C3C4C=CC(C4)C3C2=O)s1 (stereo not shown)	2.68%
COc1ccccc1C(=O)NCCCNC(=O)c1cccnc1	13.5%
CCc1ccc(NC(=O)C2CCCN(S(C)(=O)=O)C2)cc1 (stereo not shown)	24.3%
Cc1ccc(S(=O)(=O)N2CCC(C)CC2)cc1C(=O)NCc1ccccn1	5.18%
O=C(Nc1cccc(Cl)c1)Nc1nnc(CSCCOc2ccc(Cl)cc2)s1	6.88%
COCCNCC(=O)NC12CC3CC(CC(C3)C1)C2	12.9%
COc1ccc(-n2nc(C(=O)NCC(=O)Nc3cccc(C)n3)c3ccccc3c2=O)cc1	12.1%
Nc1c(C(=O)NCCC2=CCCCC2)sc2ccc(S(=O)(=O)N3CCCCC3)cc12	-23.5%
